In patent US8406870B2, “Treating cancer using electromagnetic fields in combination with other treatment regimens” (priority 2006, dated 2013):
Like-named read-outs stand apart in the source and are kept apart here.

How the values were obtained:
[1] = test system: human breast cancer (MDA-MB-231) cells
[2] = test system: ER-negative MDA-MB-231 cells
[3] = test system: human breast cancer (MDA-MB-231) cells; test: cells

Row | SMILES | Combination index CI50 ([1]; Doxorubicin + TTFields 1.25 V/cm) | effect of added TTFields on cell proliferation ([1]; Doxorubicin + TTFields 1.25 and 1.75 V/cm) | Combination index CI50 ([1]; Doxorubicin + TTFields 1.75 V/cm) | effect of added TTFields on cell proliferation ([1]; Doxorubicin all concentrations + TTFields 0.625 V/cm) | effect of combined treatment on cell division ([2]; 0.1 μM Doxorubicin + 1.75 V/cm TTFields) | cell number during the 48 hours after 24 hour treatment ([2]; 0.1 μM Doxorubicin alone for 24 hours, then normal conditions) | reduction in cell number as compared to the control ([2]; 0.1 μM Doxorubicin alone, 24 hours) [%] | cell division during 72 hour treatment ([2]; 0.1 μM Doxorubicin alone, 72 hours) | IC50 ([3]; MDA-MB-231, 24 h, read-out: concentration for complete arrest of cell proliferation (50% inhibition), Doxorubicin alone, 24 h) [µM] | IC50 ([3]; MDA-MB-231, read-out: concentration required to reach complete arrest of cell proliferation (50% inhibition), Doxorubicin + TTFields 1.25 V/cm) [µM] | IC50 ([3]; MDA-MB-231, read-out: concentration required to reach complete arrest of cell proliferation (50% inhibition), Doxorubicin + TTFields 1.75 V/cm) [µM] | effect on cell proliferation rate, combination versus drug alone ([1]; Paclitaxel + TTFields 0.625 V/cm, all concentrations) | Combination index CI40 ([1]; Paclitaxel + TTFields 1.25 V/cm) | effect on cell proliferation rate, combination versus drug alone ([1]; Paclitaxel + TTFields 1.25 and 1.75 V/cm) | Combination index CI40 ([1]; Paclitaxel + TTFields 1.75 V/cm) | cell proliferation rate (% of control) ([1]; Paclitaxel alone, concentrations above 100 nM, 24 h) [%] | effect of combined treatment on cell number ([2]; 12.5 nM Paclitaxel + 1.75 V/cm TTFields, 24 hours and 72 hours) | cell proliferation after end of 24 hour treatment ([2]; 12.5 nM Paclitaxel alone for 24 hours, then normal conditions) | reduction in proliferation rate and cell number at end of treatment, lower than control ([2]; 12.5 nM Paclitaxel alone, 24 hours) | cell proliferation during 72 hour treatment ([2]; 12.5 nM Paclitaxel alone, 72 hours)
1 | COc1cccc2c1C(=O)c1c(O)c3c(c(O)c1C2=O)C[C@@](O)(C(=O)CO)C[C@@H]3O[C@H]1C[C@H](N)[C@H](O)[C@H](C)O1 [Doxorubicin] | 0.99 | statistically significant (ANOVA, P<0.05) anti-proliferation effect | 0.98 | no significant effect on cell proliferation | complete halt of cell division after first 24 hours | slow increase in cell number | 26±4 | complete arrest of cell division at the end of the second day | ~1 | 0.41 | 0.22 |  |  |  |  |  |  |  |  | 
2 | CC(=O)O[C@H]1C(=O)[C@@]2(C)[C@H]([C@H](OC(=O)c3ccccc3)[C@]3(O)C[C@H](OC(=O)[C@H](O)[C@@H](NC(=O)c4ccccc4)c4ccccc4)C(C)=C1C3(C)C)[C@]1(OC(C)=O)CO[C@@H]1C[C@@H]2O [Paclitaxel] |  |  |  |  |  |  |  |  |  |  |  | same effect on cell proliferation rate as Paclitaxel alone | 0.97 | statistically significant (ANOVA, P<0.05) additional decrease in cell proliferation rate | 0.86 | ~50 | induction of cell death already during the first 24 hours | complete recovery of cell proliferation rate | approx. 27±3% | proliferation completely stops during second day of treatment
